# Test results taken from PubChem BioAssay (Tox21).
# Records with an inconclusive call do not appear. Calls come from the whole dose curve; as a rule, active = well fitted curve in the direction sought with a large enough effect in the repeat runs; inconclusive = weak or mixed curves; inactive = no such curve, though single readings can be large; an effect the other way counts as inactive or inconclusive. A structure can be active in one record and inactive in another. Some entries of the source have several records that differ or are many. The other results are left out here. An entry can have further records. The records of an entry repeat one measurement (runs, samples, wells, individuals or studies). Brackets tell where a record comes from. Letters hold for one entry only.
# Key:
# [1] = A CellTox Green Cytotoxicity Assay to monitor cytotoxicity in HEK293 cells - 24 hour (AID 1224875); note: nearly all actives have a fitted effect of over 45% in size
# How it was run: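 Tox21 screen in HEK293: membrane-impermeant cyanine dye fluoresces on binding dead-cell DNA; compound pinned 5 h post-seeding, plates held at 37 C, signal read repeatedly through 40 h.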
# [2] = A CellTox Green Cytotoxicity Assay to monitor cytotoxicity in HEK293 cells - 16 hour (AID 1224888); note: nearly all actives have a fitted effect of over 35% in size
# Text: National Center for Advancing Translational Sciences [NCATS]
# NIH Chemical Genomics Center [NCGC]
# U.S. Environmental Protection Agency [EPA]
# National Institutes of Environmental Health Sciences [NIEHS]
# National Toxicology Program [NTP]
# Cell-based models are critical for drug discovery. Determining the natural cytotoxic effects resulting from test compounds is an essential research activity. A CellTox Green Cytotoxicity Assay to monitor cytotoxicity in real time of continues cell culture during 40 hours of the compound treatment was used to screen Tox21 10K library compounds in Hek293 cells. CellTox Green Cytotoxicity Assay is a nonlytic, homogeneous, biofluorescent method to measure cytotoxicity in cell culture after experimental manipulation. The assay system uses a proprietary asymmetric cyanine dye that is excluded from viable cells but preferentially stains the dead cell's DNA. […] Viable cells produce no appreciable increases in fluorescence. Therefore, the fluorescence signal produced by the binding interaction with dead cell DNA is proportional to cytotoxicity.
# The mixture of Hek293 cell suspension and reagents were dispensed at 600cells/6 ul/well in 1536-well tissue culture treated black solid bottom plates using a Multidrop dispenser. After the assay plates were incubated at a 37 C/5% CO2 incubator for 5 hours, 23 nL of compounds dissolved in DMSO, positive and negative controls was transferred to the assay plate by a pintool work station. The plates were incubated at 37 C for 40 hours. The fluorescence intensity were measured at 0h, 8h, 16h, 24h, 32h and 40h time points using ViewLux plate reader during compound treatment.
# [3] = qHTS assay to identify small molecule antagonists of the TGF-beta/Smad signaling pathway - cell viability counter screen (AID 1346824); note: nearly all actives have a fitted effect of over 50% in size
# How it was run: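 SBE-bla HEK 293T cells, incubated overnight, then compound plus 0.25 ng/mL TGF-beta1 (stock added) for 5 hr at 37 C. Viability was read in the same wells by CellTiter-Glo luminescence after 30 min at room temperature.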
# [4] = qHTS assay to identify small molecule agonists of the constitutive androstane receptor (CAR) signaling pathway - cell viability counter screen (AID 1224836); note: nearly all actives have a fitted effect of over 45% in size
# How it was run: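 Viability read-out: CellTiter-Fluor fluorescence after 23 h compound exposure at 37 C/5% CO2 in double-stable HepG2-CYP2B6-hCAR cells, with PK11195 present at 0.75 uM final; compounds tested in 15-point titration.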
# [5] = qHTS assay to identify small molecule antagonists of the constitutive androstane receptor (CAR) signaling pathway - cell viability counter screen (AID 1224837); note: nearly all actives have a fitted effect of over 45% in size
# How it was run: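 To flag cytotoxic false antagonists, HepG2 hCAR/CYP2B6-2.2kb cells were treated 23 hr with 15-concentration compound series and 50 nM CITCO at 37 C/5% CO2; CellTiter-Fluor fluorescence was the measured end point.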
# [6] = qHTS assay to identify small molecule antagonists of the progesterone receptor (PR) signaling pathway - cell viability counter screen (AID 1346798); note: nearly all actives have a fitted effect of over 50% in size
# How it was run: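 Luminescence readout (CellTiter-Glo, 30 min, RT) of viability in PR-UAS-bla HEK293T cells exposed to compound and R5020 agonist for 16 hr at 37C, 5% CO2; run in the same wells as the beta-lactamase reporter read.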
# [7] = qHTS assay to identify small molecule antagonists of the estrogen receptor alpha (ER-alpha) signaling pathway using the BG1 cell line in the presence of 0.1 nM 17-beta-estradiol - cell viability counter screen (AID 1259241); note: nearly all actives have a fitted effect of over 40% in size
# How it was run: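 Live-cell protease activity (CellTiter-Fluor fluorescence, 30 min) was read in the same wells after VM7Luc4E2 cells had been exposed to compounds with 0.1 nM 17beta-estradiol for 22 hr at 37C.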
# Potency is the fitted concentration of half-maximal effect.
compound,measurement,setting,value
C=CCO,Potency,[1],inactive [sample A] and active: 27.5 µM [sample B]
same,Potency,[2],inactive [sample A] and active: 27.5 µM [sample B]
CCCCCCCCCCCC#N,Potency,[1],inactive [sample A] and active: 28.5 µM [sample B]
same,Potency,[2],inactive [sample A] and active: 45.2 µM [sample B]
CCOP(=S)(OCC)SCCSCC,Potency,[3],active: 2.01 µM [sample A] and inactive [sample B]
O=NN1CCCC1,Potency,[4],active: 32.1 µM [sample A] and inactive [sample B]
same,Potency,[5],active: 45.3 µM [sample A] and inactive [sample B]
same,Potency,[6],active: 25.5 µM [sample A] and inactive [sample B]
CCC[N+](=O)[O-],Potency,[4],active: 16.9 µM [sample A] and inactive [sample B]
same,Potency,[5],active: 13.4 µM [sample A] and inactive [sample B]
same,Potency,[7],active: 26.8 µM [sample A] and inactive [sample B]
same,Potency,[6],active: 16.9 µM [sample A] and inactive [sample B]
CCCN(CCC)c1c([N+](=O)[O-])cc(C(F)(F)F)cc1[N+](=O)[O-],Potency,[1],active: 1.55 µM [sample A] and inactive [sample B]
CCCC1COC(Cn2cncn2)(c2ccc(Cl)cc2Cl)O1 (stereo not drawn),Potency,[1],active: 49.9 µM [sample A] and inactive [sample B]
c1cc2c3c(cccc3c1)CC2,Potency,[1],inactive [sample A] and active: 49 µM [sample B]
same,Potency,[2],inactive [sample A] and active: 49 µM [sample B]
C1CN2CCN1CC2,Potency,[1],inactive [sample A] and active: 21.9 µM [sample B]
same,Potency,[2],inactive [sample A] and active: 21.9 µM [sample B]
